Test results reported in publication PMC9331078.
These are yes or no findings as the source states them, for the method shown. Binding seen in cells or lysates may run through a third protein. Some entries that bind do so weakly or less than the wild type.

Sequences of proteins named here, by UniProt entry; tags and fusion partners are left off. A change or cut given only in a name is not applied to a line headed by its entry.
UniProt P46531: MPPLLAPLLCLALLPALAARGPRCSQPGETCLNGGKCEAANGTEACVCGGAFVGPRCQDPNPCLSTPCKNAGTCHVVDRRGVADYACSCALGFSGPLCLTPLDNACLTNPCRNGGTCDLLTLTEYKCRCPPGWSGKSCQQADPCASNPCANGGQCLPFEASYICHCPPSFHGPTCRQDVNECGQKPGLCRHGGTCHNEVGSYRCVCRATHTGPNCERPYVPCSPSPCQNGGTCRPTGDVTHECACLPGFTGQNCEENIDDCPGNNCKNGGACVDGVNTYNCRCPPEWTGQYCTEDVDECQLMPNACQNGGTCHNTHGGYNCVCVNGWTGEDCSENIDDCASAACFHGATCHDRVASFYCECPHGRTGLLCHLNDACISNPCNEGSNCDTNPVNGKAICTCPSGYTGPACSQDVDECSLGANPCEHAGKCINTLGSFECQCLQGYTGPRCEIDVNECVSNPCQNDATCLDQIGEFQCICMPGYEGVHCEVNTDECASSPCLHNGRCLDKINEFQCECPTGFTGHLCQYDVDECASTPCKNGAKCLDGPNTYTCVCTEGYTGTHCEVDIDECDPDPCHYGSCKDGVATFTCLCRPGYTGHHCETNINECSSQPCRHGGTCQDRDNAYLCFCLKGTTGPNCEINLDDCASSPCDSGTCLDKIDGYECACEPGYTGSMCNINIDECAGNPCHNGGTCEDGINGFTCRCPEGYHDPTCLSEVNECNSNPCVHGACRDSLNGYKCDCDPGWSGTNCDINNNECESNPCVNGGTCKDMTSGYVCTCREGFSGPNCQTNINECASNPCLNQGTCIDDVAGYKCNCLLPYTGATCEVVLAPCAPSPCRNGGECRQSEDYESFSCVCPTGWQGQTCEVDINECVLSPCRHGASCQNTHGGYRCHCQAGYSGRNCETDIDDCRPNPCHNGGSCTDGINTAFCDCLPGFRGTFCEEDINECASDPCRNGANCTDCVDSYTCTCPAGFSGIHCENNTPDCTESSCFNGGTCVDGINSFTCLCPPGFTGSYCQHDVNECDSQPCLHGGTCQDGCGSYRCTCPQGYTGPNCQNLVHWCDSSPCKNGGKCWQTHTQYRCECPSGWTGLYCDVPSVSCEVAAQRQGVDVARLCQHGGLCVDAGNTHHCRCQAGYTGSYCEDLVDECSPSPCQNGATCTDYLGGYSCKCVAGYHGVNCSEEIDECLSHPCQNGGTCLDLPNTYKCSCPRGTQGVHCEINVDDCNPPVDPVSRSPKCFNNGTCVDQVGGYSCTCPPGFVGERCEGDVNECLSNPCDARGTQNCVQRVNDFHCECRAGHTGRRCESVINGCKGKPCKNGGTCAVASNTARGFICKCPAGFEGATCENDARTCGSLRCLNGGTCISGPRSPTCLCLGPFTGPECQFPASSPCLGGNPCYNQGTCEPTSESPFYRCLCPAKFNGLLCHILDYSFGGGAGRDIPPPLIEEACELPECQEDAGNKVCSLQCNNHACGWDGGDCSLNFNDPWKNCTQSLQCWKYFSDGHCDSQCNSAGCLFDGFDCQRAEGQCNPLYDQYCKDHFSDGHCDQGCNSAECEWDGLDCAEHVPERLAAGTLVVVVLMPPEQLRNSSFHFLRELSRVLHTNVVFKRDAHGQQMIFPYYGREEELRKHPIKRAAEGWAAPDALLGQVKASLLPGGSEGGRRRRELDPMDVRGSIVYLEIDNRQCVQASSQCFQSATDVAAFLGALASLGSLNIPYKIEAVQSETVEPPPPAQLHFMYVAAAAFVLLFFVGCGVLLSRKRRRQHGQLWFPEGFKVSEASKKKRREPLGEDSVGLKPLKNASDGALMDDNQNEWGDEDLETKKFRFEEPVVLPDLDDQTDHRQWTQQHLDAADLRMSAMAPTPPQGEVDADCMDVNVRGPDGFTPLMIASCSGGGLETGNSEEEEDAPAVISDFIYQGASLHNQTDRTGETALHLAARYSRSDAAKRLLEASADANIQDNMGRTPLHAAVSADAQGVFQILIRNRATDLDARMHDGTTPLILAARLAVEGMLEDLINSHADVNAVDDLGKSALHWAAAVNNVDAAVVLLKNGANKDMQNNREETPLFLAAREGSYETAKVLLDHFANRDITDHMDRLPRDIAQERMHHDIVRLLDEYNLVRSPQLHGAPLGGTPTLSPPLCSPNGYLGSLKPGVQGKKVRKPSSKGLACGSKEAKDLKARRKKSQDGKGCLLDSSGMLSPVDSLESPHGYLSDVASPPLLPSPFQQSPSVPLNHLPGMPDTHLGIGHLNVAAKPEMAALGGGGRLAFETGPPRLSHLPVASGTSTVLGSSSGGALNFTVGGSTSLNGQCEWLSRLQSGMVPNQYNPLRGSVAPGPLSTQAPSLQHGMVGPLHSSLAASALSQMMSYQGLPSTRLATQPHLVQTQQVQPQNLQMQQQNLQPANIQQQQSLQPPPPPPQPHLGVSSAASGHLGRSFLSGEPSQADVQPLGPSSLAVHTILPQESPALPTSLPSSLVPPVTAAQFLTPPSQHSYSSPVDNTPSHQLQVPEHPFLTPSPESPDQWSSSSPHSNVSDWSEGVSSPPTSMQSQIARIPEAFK
UniProt Q06330: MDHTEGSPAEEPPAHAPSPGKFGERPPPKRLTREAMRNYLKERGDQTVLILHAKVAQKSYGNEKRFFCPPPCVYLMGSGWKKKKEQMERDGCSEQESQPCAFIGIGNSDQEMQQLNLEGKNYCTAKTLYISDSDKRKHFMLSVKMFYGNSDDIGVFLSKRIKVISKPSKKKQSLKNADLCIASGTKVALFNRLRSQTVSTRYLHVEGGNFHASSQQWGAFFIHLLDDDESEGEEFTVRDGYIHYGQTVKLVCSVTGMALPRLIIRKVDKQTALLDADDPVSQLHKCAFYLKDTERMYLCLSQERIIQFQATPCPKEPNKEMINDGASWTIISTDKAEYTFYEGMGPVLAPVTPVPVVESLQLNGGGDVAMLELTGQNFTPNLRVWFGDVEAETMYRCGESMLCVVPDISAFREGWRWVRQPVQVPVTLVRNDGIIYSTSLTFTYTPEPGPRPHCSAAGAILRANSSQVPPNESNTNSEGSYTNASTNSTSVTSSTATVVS
UniProt O43734: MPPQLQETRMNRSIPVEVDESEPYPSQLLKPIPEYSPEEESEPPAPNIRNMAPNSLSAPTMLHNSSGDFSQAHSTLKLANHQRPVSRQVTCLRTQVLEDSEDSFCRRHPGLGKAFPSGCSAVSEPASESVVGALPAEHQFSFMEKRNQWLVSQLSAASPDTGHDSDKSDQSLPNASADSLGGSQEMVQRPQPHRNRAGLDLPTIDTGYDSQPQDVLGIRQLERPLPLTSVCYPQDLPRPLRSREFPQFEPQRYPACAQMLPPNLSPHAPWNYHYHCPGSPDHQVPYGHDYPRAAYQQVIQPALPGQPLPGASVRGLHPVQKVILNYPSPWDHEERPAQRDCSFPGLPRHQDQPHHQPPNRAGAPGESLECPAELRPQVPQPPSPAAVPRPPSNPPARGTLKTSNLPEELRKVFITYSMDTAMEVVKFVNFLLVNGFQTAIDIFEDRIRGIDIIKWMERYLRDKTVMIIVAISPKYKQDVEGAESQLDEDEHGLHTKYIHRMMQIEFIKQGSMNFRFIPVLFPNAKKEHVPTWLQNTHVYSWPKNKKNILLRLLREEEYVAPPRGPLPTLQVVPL
UniProt P26358: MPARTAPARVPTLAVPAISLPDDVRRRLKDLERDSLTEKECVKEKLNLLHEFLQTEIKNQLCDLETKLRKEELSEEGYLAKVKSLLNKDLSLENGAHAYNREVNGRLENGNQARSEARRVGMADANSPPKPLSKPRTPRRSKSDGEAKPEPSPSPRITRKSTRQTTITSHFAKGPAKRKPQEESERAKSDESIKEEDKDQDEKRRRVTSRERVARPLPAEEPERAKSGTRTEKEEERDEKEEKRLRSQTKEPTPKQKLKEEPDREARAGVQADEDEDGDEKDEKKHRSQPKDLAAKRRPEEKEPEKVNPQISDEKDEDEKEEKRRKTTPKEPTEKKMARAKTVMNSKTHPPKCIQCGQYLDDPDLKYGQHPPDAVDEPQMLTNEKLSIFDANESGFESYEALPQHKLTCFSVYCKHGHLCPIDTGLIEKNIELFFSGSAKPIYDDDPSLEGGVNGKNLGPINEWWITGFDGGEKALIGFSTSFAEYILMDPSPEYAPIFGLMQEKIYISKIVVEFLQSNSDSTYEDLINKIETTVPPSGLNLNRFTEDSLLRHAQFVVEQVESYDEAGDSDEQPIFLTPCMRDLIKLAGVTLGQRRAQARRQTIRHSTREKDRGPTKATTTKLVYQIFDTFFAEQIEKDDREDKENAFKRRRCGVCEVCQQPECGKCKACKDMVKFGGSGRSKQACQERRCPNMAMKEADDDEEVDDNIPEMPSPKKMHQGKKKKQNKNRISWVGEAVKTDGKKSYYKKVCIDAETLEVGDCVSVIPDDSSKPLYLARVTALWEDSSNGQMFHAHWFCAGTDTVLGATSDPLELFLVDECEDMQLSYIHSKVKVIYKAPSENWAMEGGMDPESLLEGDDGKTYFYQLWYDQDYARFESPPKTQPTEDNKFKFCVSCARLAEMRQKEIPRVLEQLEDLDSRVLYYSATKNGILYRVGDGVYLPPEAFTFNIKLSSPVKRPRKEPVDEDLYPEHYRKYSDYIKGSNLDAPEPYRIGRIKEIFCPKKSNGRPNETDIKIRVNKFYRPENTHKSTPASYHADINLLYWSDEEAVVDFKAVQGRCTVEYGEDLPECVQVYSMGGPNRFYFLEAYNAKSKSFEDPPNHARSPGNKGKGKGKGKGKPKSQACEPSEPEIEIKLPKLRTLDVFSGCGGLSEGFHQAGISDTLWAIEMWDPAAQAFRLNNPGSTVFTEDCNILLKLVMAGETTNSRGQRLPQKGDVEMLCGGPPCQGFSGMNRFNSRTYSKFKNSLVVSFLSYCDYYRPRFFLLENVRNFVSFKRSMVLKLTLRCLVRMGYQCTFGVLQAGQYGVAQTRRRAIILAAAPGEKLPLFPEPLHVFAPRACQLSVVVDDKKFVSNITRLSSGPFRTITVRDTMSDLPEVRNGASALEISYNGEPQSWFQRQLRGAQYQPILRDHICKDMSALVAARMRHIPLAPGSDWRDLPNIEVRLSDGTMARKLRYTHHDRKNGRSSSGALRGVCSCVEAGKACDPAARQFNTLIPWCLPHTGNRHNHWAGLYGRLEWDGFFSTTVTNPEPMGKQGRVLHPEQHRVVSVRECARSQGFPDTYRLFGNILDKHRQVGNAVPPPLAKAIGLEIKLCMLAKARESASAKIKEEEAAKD
UniProt Q92831: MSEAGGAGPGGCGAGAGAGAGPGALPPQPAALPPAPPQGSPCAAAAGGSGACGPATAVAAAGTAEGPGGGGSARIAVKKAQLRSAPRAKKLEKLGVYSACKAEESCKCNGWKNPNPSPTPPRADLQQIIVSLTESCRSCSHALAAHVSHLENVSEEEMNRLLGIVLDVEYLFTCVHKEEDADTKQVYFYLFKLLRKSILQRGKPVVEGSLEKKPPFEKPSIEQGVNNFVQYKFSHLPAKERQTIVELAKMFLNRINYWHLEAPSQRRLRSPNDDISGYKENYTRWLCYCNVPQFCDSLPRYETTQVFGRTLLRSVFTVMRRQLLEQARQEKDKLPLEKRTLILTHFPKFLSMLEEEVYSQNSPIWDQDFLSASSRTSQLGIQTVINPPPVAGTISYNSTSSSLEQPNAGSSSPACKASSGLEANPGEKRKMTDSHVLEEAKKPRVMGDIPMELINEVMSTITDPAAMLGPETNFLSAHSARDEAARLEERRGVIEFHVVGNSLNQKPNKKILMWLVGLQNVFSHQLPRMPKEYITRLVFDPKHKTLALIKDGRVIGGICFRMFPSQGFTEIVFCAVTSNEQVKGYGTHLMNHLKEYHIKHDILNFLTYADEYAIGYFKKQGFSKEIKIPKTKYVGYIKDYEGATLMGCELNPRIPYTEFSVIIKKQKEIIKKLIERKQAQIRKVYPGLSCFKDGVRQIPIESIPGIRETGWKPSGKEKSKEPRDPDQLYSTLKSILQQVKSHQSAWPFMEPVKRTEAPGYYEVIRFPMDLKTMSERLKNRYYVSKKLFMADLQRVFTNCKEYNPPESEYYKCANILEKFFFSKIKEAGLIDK

Key:
HA-NOTCH1 = HA-NOTCH1 (UniProt P46531); test: co-IP; 786-O cells transfected with Flag-TRAF3IP2 or HA-NOTCH1; IP with anti-Flag antibody, anti-HA antibody or normal rabbit IgG; western blot
[1] = target: RBPJ (human (endogenous in UOK109 or 786-O)) (UniProt Q06330); test: co-IP; UOK109 or 786-O cells transfected with indicated lentivirus (TRAF3IP2 overexpression); IP with anti-Flag antibody or anti-RBPJ antibody; western blot
Flag-TRAF3IP2 [2] = target: Flag-TRAF3IP2 (UniProt O43734); test: co-IP; 786-O cells transfected with Flag-TRAF3IP2 or HA-NOTCH1; IP with anti-Flag antibody, anti-HA antibody or normal rabbit IgG; western blot
[3] = target: TRAF3IP2 (TRAF3 interacting protein 2) (human (endogenous in UOK109 and 786-O)) (UniProt O43734); test: co-IP; UOK109 lysate, endogenous proteins; CoIP and reverse CoIP with anti-TRAF3IP2 antibody, anti-NOTCH1 antibody or normal rabbit IgG; western blot
Flag-DNMT1 = Flag-DNMT1 (UniProt P26358); test: co-IP; 786-O cells transfected with Flag-HNRNPK/Flag-DNMT1; IP with anti-Flag antibody or normal rabbit IgG; western blot
Flag-TRAF3IP2 [4] = target: Flag-TRAF3IP2 (UniProt O43734); test: co-IP; UOK109 cells transfected with Flag-TRAF3IP2, HA-NICD1 and V5-NECD1; IP with anti-Flag antibody; western blot

TRAF3IP2 (TRAF3 interacting protein 2) (from UniProt O43734 1-574)
binding (HA-NOTCH1): binds

EP300 (from UniProt Q09472 1-2414)
binding [1]: binds

NOTCH1 (from UniProt P46531 19-2555) (receptor)
binding (Flag-TRAF3IP2 [2]): binds
binding [3]: binds

HNRNPK (heterogeneous nuclear ribonucleoprotein K) (from UniProt P61978 1-463)
binding (Flag-DNMT1): binds

Flag-TRAF3IP2 (from UniProt O43734 1-574)
binding [1]: binds

KAT2B (from UniProt Q92831 1-832)
binding [1]: binds

V5-NECD1 (extracellular domain of NOTCH1) (from UniProt P46531 19-1735) (domain or fragment)
binding (Flag-TRAF3IP2 [4]): no binding
